The source of these data is the RNAGym collection of RNA variant scans (doi:10.7554/elife.90254).

First the molecules themselves.
B1: LINE1-mini (parent)
chain: GGCAGAGCUCAACACAGCGUGGCAAAGUGGCUGUGGCUAGACUGCC

Read counts are not given, so values of variants with three or more changes are uncertain.

Variants of B1 are the subject of this series. The series can be described thus: self-cleavage, relative activity (ratio to wild type); higher = more cleavage; in vitro, sequencing; the parent is a self-cleaving ribozyme.
GGCAGAGCUCAACACAGCGUGGCAAAGUGGUUGUGGUUAGACUGCA [C31U C37U C46A]: the self-cleavage came to 0.02.

Take GGCAGAUCUCAACACAGCGUGGCAAAGUUGCUGUAGCUAGACUGCC [G7U G29U G35A]: the self-cleavage was 0.1. Then GGCAGAGCUCCACACAGCGUGGCAAAGUGUUUGUGGCUAGACUGCC [A11C G30U C31U], with 0.03; and GGAAGAGCUCAACACAGCGUGCCAAAGUGGCUGUGGCUAGAUUGGC [C3A G22C C42U C45G], with 0.07; and GUCAGAGCUAAACACAGCUUUGCAAAGUGGCUGUGGCUAGACUGCC [G2U C10A G19U G21U], with 0.02.

Take GGCAUAGCUCAACACAUUGUGGCAAAGUUGCUGUGGCUAGACUGCC [G5U G17U C18U G29U]: the self-cleavage was 0.02. With GGUAGAGCUCAACACAGCGUCGUAAAGUGGCUGUGGAUAGACUGCC [C3U G21C C23U C37A] the figure was 0.14; with GGCAGAGUUCAACACAGCGUGGCAAAGUGGCGGUGGCUGGAUUGCC [C8U U32G A39G C42U], 0.05; with UGCAGAGCUCAAUACAGCGGGGCAAAGUGGCUGUGGCAAGACUGCC [G1U C13U U20G U38A], 0.04. With GACAGACCUCAACACAGCGUGGCAAAGUCGCUGUGUCUACUCUGCC [G2A G7C G29C G36U G40C A41U] the figure was 0.03; with GGCACAGCACGACACAGCGUGGCAAAGUGGCAUUGGCUAGACGGCC [G5C U9A A11G U32A G33U U43G], 0.02.

For GUCAGGGCUCAACACAGUUUGGCAAAGUGGCUGUGGCUAGACUGCC [G2U A6G C18U G19U], the self-cleavage turned out to be 0.11. Turning to GGCAGAGCUCAACACAGUGUGGCAAAUUGGCUGUGGCUUGACUGCU [C18U G27U A39U C46U], the self-cleavage was determined as 1.37.

Regarding GGUAGAGCAAAACACAGCGUGGCAAAGUGGCUGUGGCUACACUGCC [C3U U9A C10A G40C], the self-cleavage came out at 0.02. With GGCAGAGCUCAACACAGCGUGGCAAAGUGGCUGUGCCUAGAUUGGC [G36C C42U C45G] the figure was 0.02; with GGCAAAGCUCAACACAGCGUGACAAAGUGGCUGUGGCUAGUCUUCC [G5A G22A A41U G44U], 0.12; with GGCAGAGCGCAACACAGCUUGGCACAGUCGCUGUGGCCAGACUGCC [U9G G19U A25C G29C U38C], 0.03. With GACAGAGCUCAACUCUGCGUGGCAAAGUGGCUGUGGCUAGACUUCC [G2A A14U A16U G44U] the figure was 0.03; with GGCAGAGCUCAACACAGCGUGCCAAUGUGGCUGUGGCUGGACUGCC [G22C A26U A39G], 0.02. With GACAGUGCUCAACACACCGUGGCAAAGUGGCUGUGGCUAGACUGCC [G2A A6U G17C] the figure was 0.32. In the case of GGCAAAGCUCAACACAGCGUUGGAAAGUGGCUGUGGCUAGACAGCC [G5A G21U C23G U43A], the self-cleavage stood at 0.01. Then GGCAGAGCUCAAGAUAGCGUGGCAAAGUGGCUGUGGAUAGACUGCC [C13G C15U C37A], with 0.13; and GGCCGAGCCAAACACCGCGAGUCAAAGUGGCCGUGGCUAGACUGCC [A4C U9C C10A A16C U20A G22U U32C], with 0.02. Then GGCAGGGCUCAACAGAGCGUGGCAAAGUGGCUGUGGCUAGACUUCC [A6G C15G G44U], with 0.01; and GCAAGAGCUCAACACAGAUUGGCAAAAUGGCUGUGGCUAGACUGCC [G2C C3A C18A G19U G27A], with 0.11; and GGCAGAGCUUCACACAGCGUGGCAAAGCGGCUGUGGCUAGACUGCC [C10U A11C U28C], with 0.06. Then GGCAGAGCUCAACACAACGUGGCCAAGUGGCUGAGGCUAGACUGCC [G17A A24C U34A], with 0.06; and GGCAGAGCUCAAGACAGGGUUGCAAAGUGGCUGUGGCUAGACUGCC [C13G C18G G21U], with 0.04.

For GGCAAAGCUCAAAAAAGCGUGGCAACGUGGCUGUGGCUAGACUGCC [G5A C13A C15A A26C], the self-cleavage was 0.05.

Turning to GACAGAGCGCAACACAGCGUGGCAAAGUGGCUGUGGCUAGUCUGAC [G2A U9G A41U C45A], the self-cleavage was 0.1. Regarding GGCAGAGCUCUGCACAGCGUAGGAAAGUGGCUGUGGCUAGACUGCC [A11U A12G G21A C23G], the self-cleavage was found to be 0.

Regarding GGCCGAGCUCAACAGAGCGUCGCGAAGUGGCUGUGGCUAGCCUGCC [A4C C15G G21C A24G A41C], the self-cleavage amounted to 0.15. With UGCUGAGCUCAACACGGCGUAGCAAAGUGGCUGGGGCUAGACUGGA [G1U A4U A16G G21A U34G C45G C46A] the figure was 0.01; with GGCAGAGCUCAACCUAACGUGGUAAAGUGGCUGUGGCUAGACUGCC [A14C C15U G17A C23U], 0.06; with GGCAGAGCUCAACACAGAGUGGCAACGUGGCUCUGACUAGACUGCC [C18A A26C G33C G36A], 0. Then GGCAGAGCUCCUCACAGCGUGGCAAUGUGGCUGUGGCUAGACUGCC [A11C A12U A26U], with 0.08; and GGCAUAGCUCAACACAGCGUGGCAAAGUGGCUGUGGCUGGACUGGC [G5U A39G C45G], with 0.09.

As to GGCAGAGCUGAACAUAGCGUGGGAAAGUGGCUGUGACUAGACUGCC [C10G C15U C23G G36A], the self-cleavage amounted to 0.01. With GGCCGAGCUCAACACAGCGUGGGAAAGUGGCUGUGGCUAGAAUGCC [A4C C23G C42A] the figure was 0.07. With GGCAGAGCUCAACACUGCGUGGCAAAGUUACUGUGGCUACACUGCC [A16U G29U G30A G40C] the figure was 0.23; with GGCACAGCUCAACACAGCUUGGCAAAGUGGCUGUGGCUAGACUGCU [G5C G19U C46U], 0.02. GGAAGAGCUCAACAAAGCUCGGCAAAGUGGCUGUGGCUAGACUGCC [C3A C15A G19U U20C]: the self-cleavage was found to be 0.13. Then GGCAGAGCUGAUCACAGCGUGGCAAAGUGACUGUGGCUAGACUGCC [C10G A12U G30A], with 0.05. Then GGAAGAGCUCAACACAGCUUGGCAAAGUGGCUGAGGCUAGACUGCC [C3A G19U U34A], with 0.15; and GGCAGAGCUCAACACAGCGUGGCCAGGUGGCUGUGGCUAGACUGUC [A24C A26G C45U], with 0.05; and GGCAGAGUUCACCACAGCGUGGCAAAGUGGCUGUGGCUAGCCUGCC [C8U A12C A41C], with 0. Then GGCAGAGCUUAACACAUUGUGGCAAAGUGGCUGUGGCUAGACAGCC [C10U G17U C18U U43A], with 0.02; and GACCGAGCUCAACACAGCGUGGCAAAGUGGGUGUGGCUAGACUGCC [G2A A4C C31G], with 0.09; and GGCAGAGCUCAACACAGCGAGGCAAAGUGGGGGUGGCUAGACUGUC [U20A C31G U32G C45U], with 0.01. For GGCAUAGCUCAACACAGUGUAGCAAAGGGGCUGUGGCUAUAUCGCC [G5U C18U G21A U28G G40U C42U U43C], the self-cleavage is 0.05. With GGCAGAGUUCAGAACACCGUGGCAAAGUGGCUUUGGCUAGACUGCC [C8U A12G C13A G17C G33U] the figure was 0.07. Then GGAAGAGCUCAACACUGCGUUGCAAAGUGGCUGUGGCUAGACUGCC [C3A A16U G21U], with 0.07; and GGCAGAGCUCAACACAGCGUGGGAAUGUGGCUGUGGCAAUACUGCC [C23G A26U U38A G40U], with 0.06. Then GGCAGAGCUCUACACUGCGUGGCAAAGUGGUUGUGGCUAGAAUGCC [A11U A16U C31U C42A], with 0; and GGCAGAGCUCAACUCAGCGUGGCAUAGUGGCUGUGGCUACACUGCC [A14U A25U G40C], with 0.04; and GGCAGAGCUCAUCACAGCAUGGCAAAGUGGCUGAGAAUAGACUGCC [A12U G19A U34A G36A C37A], with 0.56.
